From article PMC12820563, “FoxP3 forms a head-to-head dimer in vivo and stabilizes its multimerization on adjacent microsatellites”
The list shows a part of the results.

What follows are sequences tested against T1, MBP-FoxP1dN (Mus musculus, UniProt P58462 326-579) (assay: PD-seq (MBP pull-down with sequencing); 20 mM Tris-HCl pH 7.5, 100 mM NaCl, 1.5 mM MgCl2, 0.4 uM protein, 0.1 uM dsDNA library, 30 min, room temperature, amylose pull-down; high values mean tight binding). Conditions: protein: recombinant; tags: His6-MBP; chain copies: 2; dsDNA, one strand shown.
T1 sequence: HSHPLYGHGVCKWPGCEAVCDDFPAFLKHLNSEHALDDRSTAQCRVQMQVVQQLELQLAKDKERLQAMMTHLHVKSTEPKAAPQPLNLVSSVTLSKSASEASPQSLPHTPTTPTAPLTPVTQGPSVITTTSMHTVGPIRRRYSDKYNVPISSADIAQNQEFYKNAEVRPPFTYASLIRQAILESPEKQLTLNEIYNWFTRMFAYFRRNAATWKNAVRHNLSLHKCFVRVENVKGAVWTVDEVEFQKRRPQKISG
In short: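 Binding is reads-per-million enrichment of pull-down over input, with replicates pooled. It comes from 30 min room-temperature incubation in Tris pH 7.5 buffer with NaCl and MgCl2 of 0.4 µM His6-MBP-tagged, N-terminally truncated mouse FoxP3 or FoxP1 fragment from E. coli with 0.1 µM Klenow-filled degenerate double-stranded DNA library, followed by amylose resin capture, three washes and Illumina sequencing of the released DNA.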
“GATGATTGTTCTCCCAGCTGATGAATTACCAGCGTCGAGTAAACAAATTTTCCTAATCTTTCTGTTCAAGCGCCATCTAC” was tested, and the binding signal was 1.01 RPM ratio (pull-down/input). For “GATGATTGTTCTCCCAGCTGATGAATTAAAGTGATCGAGTAAACAAATTTTCCTAATCTTTCTGTTCAAGCGCCATCTAC”, the binding signal was 0.904 RPM ratio (pull-down/input). With “GATGATTGTTCTCCCAGCTGATGAATTTAGAGGTTCGAGTAAACAAATTTTCCTAATCTTTCTGTTCAAGCGCCATCTAC” the binding signal was 0.984 RPM ratio (pull-down/input). “GATGATTGTTCTCCCAGCTGATGAATTGTTCATTTCGAGTAAACAAATTTTCCTAATCTTTCTGTTCAAGCGCCATCTAC” was tested, and the binding signal was 1.2 RPM ratio (pull-down/input). For “GATGATTGTTCTCCCAGCTGATGAATTAAGTAAATCGAGTAAACAAATTTTCCTAATCTTTCTGTTCAAGCGCCATCTAC”, the binding signal was 1.37 RPM ratio (pull-down/input). For “GATGATTGTTCTCCCAGCTGATGAATTTCACAATTCGAGTAAACAAATTTTCCTAATCTTTCTGTTCAAGCGCCATCTAC”, the binding signal was 0.968 RPM ratio (pull-down/input). “GATGATTGTTCTCCCAGCTGATGAATTATCTGAATCGAGTAAACAAATTTTCCTAATCTTTCTGTTCAAGCGCCATCTAC” was tested, and the binding signal was 0.99 RPM ratio (pull-down/input). “GATGATTGTTCTCCCAGCTGATGAATTGGTTCGCTCGAGTAAACAAATTTTCCTAATCTTTCTGTTCAAGCGCCATCTAC” was tested, and the binding signal was 0.888 RPM ratio (pull-down/input). In the case of “GATGATTGTTCTCCCAGCTGATGAATTCGTATCTTCGAGTAAACAAATTTTCCTAATCTTTCTGTTCAAGCGCCATCTAC”, the binding signal is reported as 1.02 RPM ratio (pull-down/input). With “GATGATTGTTCTCCCAGCTGATGAATTAATCGCATCGAGTAAACAAATTTTCCTAATCTTTCTGTTCAAGCGCCATCTAC” the binding signal was 1.25 RPM ratio (pull-down/input). In the case of “GATGATTGTTCTCCCAGCTGATGAATTACGTGTTTCGAGTAAACAAATTTTCCTAATCTTTCTGTTCAAGCGCCATCTAC”, the binding signal is reported as 1.23 RPM ratio (pull-down/input). With “GATGATTGTTCTCCCAGCTGATGAATTGCTATCGTCGAGTAAACAAATTTTCCTAATCTTTCTGTTCAAGCGCCATCTAC” the binding signal was 1.02 RPM ratio (pull-down/input). “GATGATTGTTCTCCCAGCTGATGAATTAATTTGATCGAGTAAACAAATTTTCCTAATCTTTCTGTTCAAGCGCCATCTAC” was tested, and the binding signal was 0.962 RPM ratio (pull-down/input). For “GATGATTGTTCTCCCAGCTGATGAATTTATGTTATCGAGTAAACAAATTTTCCTAATCTTTCTGTTCAAGCGCCATCTAC”, the binding signal was 2.22 RPM ratio (pull-down/input). “GATGATTGTTCTCCCAGCTGATGAATTGCTCTAATCGAGTAAACAAATTTTCCTAATCTTTCTGTTCAAGCGCCATCTAC” was tested, and the binding signal was 1.1 RPM ratio (pull-down/input). For “GATGATTGTTCTCCCAGCTGATGAATTAGTGTCATCGAGTAAACAAATTTTCCTAATCTTTCTGTTCAAGCGCCATCTAC”, the binding signal was 1.27 RPM ratio (pull-down/input). In the case of “GATGATTGTTCTCCCAGCTGATGAATTAGACGAATCGAGTAAACAAATTTTCCTAATCTTTCTGTTCAAGCGCCATCTAC”, the binding signal is reported as 0.93 RPM ratio (pull-down/input). With “GATGATTGTTCTCCCAGCTGATGAATTGGACTGTTCGAGTAAACAAATTTTCCTAATCTTTCTGTTCAAGCGCCATCTAC” the binding signal was 0.873 RPM ratio (pull-down/input).
